{"source": "ChEMBL document CHEMBL5606460", "about": "“ASAP - DENV-2 NS2B-NS3 protease fluorescence single point” (2024)", "target": "Genome polyprotein (dengue virus type 2) (UniProt P29990)", "key": {"[1]": {"conditions": "Thailand/16681/1984, Concentration 25.0 uM, Number of replicates 1.0"}}, "note": "The whole screen tested about 2,000 compounds, of which about 110 (5.5%) showed an effect of 50% or more. The list shows a part of the results.", "data": [{"smiles": "COC(=O)c1cncc(C(=O)Nc2ccncc2C)c1", "values": [{"measurement": "inhibition", "setting": "Thailand/16681/1984, Concentration 49.5 uM, Number of replicates 2.0, Standard deviation 6.3209660189886 %", "value": 2.4, "unit": "%"}, {"measurement": "inhibition", "setting": "Thailand/16681/1984, Concentration 99.01 uM, Number of replicates 2.0, Standard deviation 0.9582277355643998 %", "value": -1.8, "unit": "%"}, {"measurement": "inhibition", "setting": "Thailand/16681/1984, Concentration 198.0 uM, Number of replicates 2.0, Standard deviation 0.7051109593221626 %", "value": -2.38, "unit": "%"}]}, {"smiles": "N#Cc1cccc(NC(=O)c2cccc(OCc3c(Cl)cccc3Cl)c2)c1", "values": [{"measurement": "inhibition", "setting": "Thailand/16681/1984, Concentration 49.5 uM, Number of replicates 2.0, Standard deviation 0.9750482899240065 %", "value": 1.9, "unit": "%"}, {"measurement": "inhibition", "setting": "Thailand/16681/1984, Concentration 99.01 uM, Number of replicates 2.0, Standard deviation 10.511808397875392 %", "value": 16.1, "unit": "%"}, {"measurement": "inhibition", "setting": "Thailand/16681/1984, Concentration 198.0 uM, Number of replicates 2.0, Standard deviation 5.918696266313343 %", "value": 7, "unit": "%"}]}, {"smiles": "Cc1cnccc1NC(=O)c1cncc(S(C)(=O)=O)c1", "values": [{"measurement": "inhibition", "setting": "Thailand/16681/1984, Concentration 49.5 uM, Number of replicates 2.0, Standard deviation 0.09362930826064811 %", "value": 1.61, "unit": "%"}, {"measurement": "inhibition", "setting": "Thailand/16681/1984, Concentration 99.01 uM, Number of replicates 2.0, Standard deviation 0.10343333957385824 %", "value": 2.02, "unit": "%"}, {"measurement": "inhibition", "setting": "Thailand/16681/1984, Concentration 198.0 uM, Number of replicates 2.0, Standard deviation 0.39657621920361824 %", "value": 2.99, "unit": "%"}]}, {"smiles": "Cc1ccc([N+](=O)[O-])c(NC(=O)C2CCN(c3ccc(C=O)cc3)CC2)c1", "values": [{"measurement": "inhibition", "setting": "[1]", "value": 13.9, "unit": "%"}]}, {"smiles": "CCOC(=O)[C@H]1CCCN(C(=O)C2CCN(c3ccc(C=O)cc3)CC2)C1", "values": [{"measurement": "inhibition", "setting": "[1]", "value": 11.6, "unit": "%"}]}, {"smiles": "Cc1cc(CO)c2cccc(Cc3cccc(C(=O)Nc4cccc(C(N)=O)c4)c3)c2n1", "values": [{"measurement": "inhibition", "setting": "Thailand/16681/1984, Concentration 49.95 uM, Number of replicates 2.0, Standard deviation 0.8487279472032775 %", "value": 0.063, "unit": "%"}, {"measurement": "inhibition", "setting": "Thailand/16681/1984, Concentration 99.9 uM, Number of replicates 2.0, Standard deviation 0.25943340872226184 %", "value": 4.4, "unit": "%"}]}, {"smiles": "Clc1ccc2[nH]cc(Cc3ccc(-c4nn[nH]n4)cc3)c2c1", "values": [{"measurement": "inhibition", "setting": "Thailand/16681/1984, Concentration 99.5 uM, Number of replicates 2.0, Standard deviation 0.137702183454793 %", "value": 89.8, "unit": "%"}, {"measurement": "inhibition", "setting": "Thailand/16681/1984, Concentration 295.6 uM, Number of replicates 2.0, Standard deviation 0.013886206472581278 %", "value": 98.9, "unit": "%"}]}, {"smiles": "NCc1cccc(NC(=O)[C@H]2Cc3ccccc3N2C(=O)OCc2ccccc2)c1", "values": [{"measurement": "inhibition", "setting": "Thailand/16681/1984, Concentration 49.5 uM, Number of replicates 2.0, Standard deviation 2.491282682389966 %", "value": -5.82, "unit": "%"}, {"measurement": "inhibition", "setting": "Thailand/16681/1984, Concentration 99.01 uM, Number of replicates 2.0, Standard deviation 3.038508091148741 %", "value": -5.62, "unit": "%"}, {"measurement": "inhibition", "setting": "Thailand/16681/1984, Concentration 198.0 uM, Number of replicates 2.0, Standard deviation 5.577097576419093 %", "value": 10.2, "unit": "%"}]}, {"smiles": "O=Cc1ccc(N2CCC(C(=O)Nc3ccc(Cl)c(Cl)c3)CC2)cc1", "values": [{"measurement": "inhibition", "setting": "[1]", "value": 11.8, "unit": "%"}]}, {"smiles": "CN1CCN(Cc2cccc(CNC(=O)C3CCN(c4ccc(C=O)cc4)CC3)c2)CC1", "values": [{"measurement": "inhibition", "setting": "[1]", "value": 9.88, "unit": "%"}]}, {"smiles": "Cc1cc(CO)c2cccc(CC(=O)N3CCC(C(=O)O)CC3)c2n1", "values": [{"measurement": "inhibition", "setting": "Thailand/16681/1984, Concentration 49.95 uM, Number of replicates 2.0, Standard deviation 2.0194119612586054 %", "value": -5.53, "unit": "%"}, {"measurement": "inhibition", "setting": "Thailand/16681/1984, Concentration 99.9 uM, Number of replicates 2.0, Standard deviation 1.900115643723308 %", "value": -3.5, "unit": "%"}]}, {"smiles": "Cc1cnccc1NC(=O)c1csc(-c2ccco2)n1", "values": [{"measurement": "inhibition", "setting": "Thailand/16681/1984, Concentration 49.5 uM, Number of replicates 2.0, Standard deviation 3.467417096600098 %", "value": -3.43, "unit": "%"}, {"measurement": "inhibition", "setting": "Thailand/16681/1984, Concentration 99.01 uM, Number of replicates 2.0, Standard deviation 2.201182046579419 %", "value": -3.24, "unit": "%"}, {"measurement": "inhibition", "setting": "Thailand/16681/1984, Concentration 198.0 uM, Number of replicates 2.0, Standard deviation 2.9719336141272215 %", "value": -2.24, "unit": "%"}]}, {"smiles": "O=C(Cn1ccc2cccnc21)N1CC[C@H](c2c[nH]c3ccccc23)C1", "values": [{"measurement": "inhibition", "setting": "Thailand/16681/1984, Concentration 49.5 uM, Number of replicates 2.0, Standard deviation 1.3049859583596561 %", "value": 4.28, "unit": "%"}, {"measurement": "inhibition", "setting": "Thailand/16681/1984, Concentration 99.01 uM, Number of replicates 2.0, Standard deviation 0.892571122073038 %", "value": 8.2, "unit": "%"}, {"measurement": "inhibition", "setting": "Thailand/16681/1984, Concentration 198.0 uM, Number of replicates 2.0, Standard deviation 0.11434810893272447 %", "value": 16.1, "unit": "%"}]}, {"smiles": "NCc1cccc(NC(=O)[C@@H](NC(=O)OCc2ccccc2)c2ccccc2)c1", "values": [{"measurement": "inhibition", "setting": "Thailand/16681/1984, Concentration 49.5 uM, Number of replicates 2.0, Standard deviation 1.0300513707602847 %", "value": 0.869, "unit": "%"}, {"measurement": "inhibition", "setting": "Thailand/16681/1984, Concentration 99.01 uM, Number of replicates 2.0, Standard deviation 0.7240873671299501 %", "value": 0.819, "unit": "%"}, {"measurement": "inhibition", "setting": "Thailand/16681/1984, Concentration 198.0 uM, Number of replicates 2.0, Standard deviation 0.6193503939215136 %", "value": 0.644, "unit": "%"}]}, {"smiles": "O=C(NCCc1nnc[nH]1)[C@@]1(c2ccc(F)cc2)CCCNC1", "values": [{"measurement": "inhibition", "setting": "Thailand/16681/1984, Concentration 50.0 uM, Number of replicates 2.0, Standard deviation 0.3761047678487402 %", "value": -0.092, "unit": "%"}, {"measurement": "inhibition", "setting": "Thailand/16681/1984, Concentration 100.0 uM, Number of replicates 2.0, Standard deviation 0.4194597979190475 %", "value": 0.419, "unit": "%"}, {"measurement": "inhibition", "setting": "Thailand/16681/1984, Concentration 200.0 uM, Number of replicates 2.0, Standard deviation 0.44222117184721943 %", "value": 1.04, "unit": "%"}]}, {"smiles": "Cc1cccc(C)c1NC(=O)CN1CCN(C(=O)C2CCN(c3ccc(C=O)cc3)CC2)CC1", "values": [{"measurement": "inhibition", "setting": "[1]", "value": 12.2, "unit": "%"}]}, {"smiles": "C[C@@H](CCNC(=O)C1CCN(c2ccc(C=O)cc2)CC1)N1CCOCC1", "values": [{"measurement": "inhibition", "setting": "[1]", "value": 12.8, "unit": "%"}]}, {"smiles": "CC1(C)[C@H]2CC[C@]1(C)[C@H](NC(=O)C1CCN(c3ccc(C=O)cc3)CC1)C2", "values": [{"measurement": "inhibition", "setting": "[1]", "value": 3.74, "unit": "%"}]}, {"smiles": "CNC(=O)c1nc(C)c(C)c(N2CC[C@@H](NC(=O)[C@H]3CCCc4[nH]cnc43)C2)n1", "values": [{"measurement": "inhibition", "setting": "Thailand/16681/1984, Concentration 49.5 uM, Number of replicates 2.0, Standard deviation 0.14110347627647063 %", "value": 0.754, "unit": "%"}, {"measurement": "inhibition", "setting": "Thailand/16681/1984, Concentration 99.01 uM, Number of replicates 2.0, Standard deviation 0.06819124066710994 %", "value": 1.32, "unit": "%"}, {"measurement": "inhibition", "setting": "Thailand/16681/1984, Concentration 198.0 uM, Number of replicates 2.0, Standard deviation 0.04668471539636497 %", "value": 2.04, "unit": "%"}]}, {"smiles": "O=Cc1ccc(N2CCC(C(=O)N3CCN(CC4CCCCC4)CC3)CC2)cc1", "values": [{"measurement": "inhibition", "setting": "[1]", "value": 11.7, "unit": "%"}]}, {"smiles": "Cn1cc(NC(=O)c2ccccc2C(F)(F)F)c(-c2ccc3cn[nH]c3c2)n1", "values": [{"measurement": "inhibition", "setting": "Thailand/16681/1984, Concentration 49.5 uM, Number of replicates 2.0, Standard deviation 3.8036353619602954 %", "value": -3.54, "unit": "%"}, {"measurement": "inhibition", "setting": "Thailand/16681/1984, Concentration 99.01 uM, Number of replicates 2.0, Standard deviation 3.5509755418496134 %", "value": -2.83, "unit": "%"}, {"measurement": "inhibition", "setting": "Thailand/16681/1984, Concentration 198.0 uM, Number of replicates 2.0, Standard deviation 2.7355953191530653 %", "value": -4.39, "unit": "%"}]}]}
